SMILES strings stand for the structures. The campaign covered roughly 310,000 compounds. About 2,200 (0.71%) showed an effect of 50% or more. Effects have a minus sign here. The list shows a part of the results.

Chain of human ether-à-go-go-related gene (hERG) potassium channel (Q12809 whole entry, looked up): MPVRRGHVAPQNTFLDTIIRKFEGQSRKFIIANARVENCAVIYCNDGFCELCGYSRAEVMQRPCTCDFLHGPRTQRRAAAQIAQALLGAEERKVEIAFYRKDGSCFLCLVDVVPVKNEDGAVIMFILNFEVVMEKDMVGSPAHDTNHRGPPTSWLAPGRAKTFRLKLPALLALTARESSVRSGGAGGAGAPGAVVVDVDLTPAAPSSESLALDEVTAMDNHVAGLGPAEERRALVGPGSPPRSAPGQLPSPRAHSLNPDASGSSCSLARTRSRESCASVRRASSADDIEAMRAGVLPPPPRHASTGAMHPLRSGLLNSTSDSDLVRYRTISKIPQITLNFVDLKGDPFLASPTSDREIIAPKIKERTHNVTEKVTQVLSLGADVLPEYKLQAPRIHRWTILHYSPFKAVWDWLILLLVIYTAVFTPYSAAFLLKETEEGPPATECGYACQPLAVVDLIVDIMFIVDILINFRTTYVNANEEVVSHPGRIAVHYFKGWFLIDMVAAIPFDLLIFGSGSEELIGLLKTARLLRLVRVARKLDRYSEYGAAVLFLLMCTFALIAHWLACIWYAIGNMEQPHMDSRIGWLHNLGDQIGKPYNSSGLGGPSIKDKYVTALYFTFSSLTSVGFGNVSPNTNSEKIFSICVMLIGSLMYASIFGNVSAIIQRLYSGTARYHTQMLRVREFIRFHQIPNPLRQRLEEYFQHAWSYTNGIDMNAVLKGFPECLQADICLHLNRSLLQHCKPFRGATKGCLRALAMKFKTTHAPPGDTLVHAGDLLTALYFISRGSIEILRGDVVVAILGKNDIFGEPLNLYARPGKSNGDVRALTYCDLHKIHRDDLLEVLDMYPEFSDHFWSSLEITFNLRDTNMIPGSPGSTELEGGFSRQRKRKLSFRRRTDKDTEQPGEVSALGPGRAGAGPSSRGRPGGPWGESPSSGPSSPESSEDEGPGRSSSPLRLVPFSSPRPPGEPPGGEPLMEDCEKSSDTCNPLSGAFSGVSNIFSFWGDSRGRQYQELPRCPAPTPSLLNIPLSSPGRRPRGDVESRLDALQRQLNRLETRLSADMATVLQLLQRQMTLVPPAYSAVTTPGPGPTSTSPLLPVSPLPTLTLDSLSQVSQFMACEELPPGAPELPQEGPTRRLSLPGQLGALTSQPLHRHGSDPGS

The assay concerns the target human ether-à-go-go-related gene (hERG) potassium channel (human, UniProt Q12809). The experiment in a line: primary screen, population patch clamp on CHO cells stably expressing hERG.
As to `COc1cc(S(=O)(=O)Nc2ccc(C(=O)NCC(=O)O)cc2)ccc1NC(C)=O`, the “hERG current change (%, negative = inhibition) at 1uM” value is listed as 4.32%.

On to `N#Cc1nc(-c2ccccc2Cl)oc1N1CCOCC1`, for which the “hERG current change (%, negative = inhibition) at 1uM” value is given as 7.45%. The figure for `CCCCOc1ccccc1N` is 19.1%; for `CCc1cccc2c(C(=O)CN3C(=O)NC(C)(c4cccc5ccccc45)C3=O)c[nH]c12` (stereo not shown) it is 15.5%; for `O=C(NC1CCCN(Cc2ccc(Cl)cc2)C1)c1ccnc(Cl)c1` (stereo not shown) it is 1.36%.

Consider `CCOc1ccc2oc(=O)cc(CN3CCOCC3)c2c1`, for which the “hERG current change (%, negative = inhibition) at 1uM” value was determined as 7.89%. The same measure for `COc1ccc(NS(=O)(=O)c2ccc(NC(=O)c3ccccn3)cc2)cc1`: 5.62%; for `COCC(C)NC(C(=O)Nc1ccc(C)c(Cl)c1)c1ccccc1` (stereo not shown): 4.35%; for `COc1ccccc1NC(C)C(=O)N/N=C/c1cccs1` (stereo not shown): 9.31%. As for `COc1ccc(Cl)cc1NC(=O)CSc1ncnc2c1oc1ccccc12`, the “hERG current change (%, negative = inhibition) at 1uM” value is recorded as 16.9%. As for `Cc1cccc(C)c1NC(=O)c1cc(S(=O)(=O)N2CCc3ccccc32)cn1C`, the “hERG current change (%, negative = inhibition) at 1uM” value is reported as 5.37%. The figure for `Cc1c(C(=O)NCCc2ccccc2)oc2ccc(S(=O)(=O)N3CCOCC3)cc12` is 3%; for `O=C(Cn1cnc(Cl)c1Cl)c1ccccc1` it is 11.8%. With `CN1N=C(C(F)(F)F)CC1=O`, the “hERG current change (%, negative = inhibition) at 1uM” value is listed as 5.29%.

As for `O=C(Nc1ccc(N2CCOCC2)cc1)c1cccc(S(=O)(=O)N2CCC(Cc3ccccc3)CC2)c1`, the “hERG current change (%, negative = inhibition) at 1uM” value is reported as 3.12%. For `O=C(NCCSCc1c(F)cccc1Cl)c1ccco1`, the “hERG current change (%, negative = inhibition) at 1uM” value is reported as 7.05%.

Regarding `CCN(CC)C(=O)COc1ccc(/C=C(\C#N)S(=O)(=O)c2ccccc2)cc1OC`, the “hERG current change (%, negative = inhibition) at 1uM” value came to 5.6%.

In the case of `CC(CCOS(N)(=O)=O)c1ccccc1` (stereo not shown), the “hERG current change (%, negative = inhibition) at 1uM” value was determined as 12.8%. For `CC(C)c1ccccc1NCC(=O)N1CCN(Cc2ccccc2)CC1.Cl`, the “hERG current change (%, negative = inhibition) at 1uM” value is given as -1.39%. The same measure for `COCCCNCCCOc1ccc(Cl)cc1Br`: 1.29%; for `O=C(c1csc2ccccc12)n1cccn1`: 9.92%; for `CCCN1CCC(N2CCN(c3ccc([N+](=O)[O-])cc3)CC2)CC1`: -62.7%. The same measure for `CCCCC(=O)Nc1sc2c(c1C(=O)OCC)CCC(C=O)=C2Cl`: 17%; for `COc1cccc(-c2cc3nc(-c4ccccc4)cc(=O)n3[nH]2)c1`: 6.7%; for `COc1ccc(NC(=S)NNc2ccc(S(=O)(=O)Nc3ccccc3C(=O)O)cc2[N+](=O)[O-])cc1`: 9.69%. The same measure for `O=C(NC(=S)NCCCN1CCOCC1)c1ccco1`: -2.56%; for `COC(=O)C(C#N)C(c1cccnc1)c1c(C)[nH][nH]c1=O` (stereo not shown): 9.74%; for `O=C(NC1CCCCCC1)c1c(O)nc2sccn2c1=O`: 3.99%. Regarding `O=C(Nc1ccc(Cl)c(Cl)c1)N1CCCCCC1`, the “hERG current change (%, negative = inhibition) at 1uM” value is given as 2.3%. The same measure for `S=C(Nc1ccccc1)N(Cc1ccccc1)Cc1ccncc1`: -0.754%; for `COc1ccc(NC(=S)NC(NC(=O)/C=C/c2ccccc2)C(Cl)(Cl)Cl)cc1` (stereo not shown): 13.5%.

In the case of `O=C(Nc1ccnn1C1CCN(Cc2c[nH]c3ccccc23)CC1)c1ccccc1`, the “hERG current change (%, negative = inhibition) at 1uM” value was -7.62%. Regarding `Cc1cccc(C(=O)O/N=C(\N)c2ccc(Cl)cc2)c1`, the “hERG current change (%, negative = inhibition) at 1uM” value turned out to be 3.91%. Turning to `COc1ccc(NC(=O)C(C)N2C(=O)c3ccccc3C2=O)c(OC)c1` (stereo not shown), the “hERG current change (%, negative = inhibition) at 1uM” value stood at 5.5%. For `COCCNS(=O)(=O)c1ccc2c(c1)n(C)c(=O)n2C`, the “hERG current change (%, negative = inhibition) at 1uM” value is recorded as 5.04%.

In the case of `CS(=O)(=O)N(CC(=O)N1CCc2ccccc2C1)c1ccc(Br)cc1`, the “hERG current change (%, negative = inhibition) at 1uM” value is reported as 13.4%. The figure for `COCCNc1nc2c(S(=O)(=O)c3cc(C)ccc3C)nnn2c2ccccc12` is 8.32%; for `O=C(C1=NN(c2ccccc2)C2C(=O)N(c3cccc(Cl)c3)C(=O)C12)c1ccccc1` (stereo not shown) it is 4.74%; for `O=C(CS(=O)(=O)c1ccccc1)Nc1nc(-c2ccc(F)cc2)cs1` it is 11.2%. With `C=CCOCCN(CC)CC`, the “hERG current change (%, negative = inhibition) at 1uM” value is -16.8%. As to `O=C(NCCCn1ccnc1)c1cc(-c2cccnc2)nc2ccc(Br)cc12`, the “hERG current change (%, negative = inhibition) at 1uM” value turned out to be 0.981%. Consider `O=C(N/N=C/c1ccccn1)c1[nH]c2ccc([N+](=O)[O-])cc2c1-c1ccccc1`, for which the “hERG current change (%, negative = inhibition) at 1uM” value was found to be 50.2%. The same measure for `O=C(Nc1ccnn1C1CCN(Cc2ccccc2OC(F)F)CC1)c1cccc(F)c1`: -1.37%; for `Cc1cnc(NC(=O)Nc2ccc(OCc3ccccc3)cc2)c(Br)c1`: 12%. Consider `CC1CCCCN1CCCNC(=O)CN1C(=O)c2cccnc2Oc2ccccc21` (stereo not shown), for which the “hERG current change (%, negative = inhibition) at 1uM” value was 9.38%.

For the compound `CCCCCn1c(CN2CCN(c3cccc(Cl)c3)CC2)nc2c1c(=O)[nH]c(=O)n2C`, the “hERG current change (%, negative = inhibition) at 1uM” value was -5.98%. Turning to `COc1ccc(-c2ccccc2)cc1NCc1ccccc1C`, the “hERG current change (%, negative = inhibition) at 1uM” value is 5.31%.

For the compound `O=[N+]([O-])c1ccc(NCCCN2CCOCC2)c([N+](=O)[O-])c1`, the “hERG current change (%, negative = inhibition) at 1uM” value is given as -13.6%. Turning to `CC1=NNC(=O)C1CC(=O)N/N=C(/C)c1cccc([N+](=O)[O-])c1` (stereo not shown), the “hERG current change (%, negative = inhibition) at 1uM” value is on record as -0.487%. The same measure for `C=CCNC(=S)Nc1ccc(F)cc1F`: 0.0017%. The same measure for `O=C(NC1C=CS(=O)(=O)C1)c1ccccc1` (stereo not shown): 15%; for `Cc1ccc(OCC(=O)Nc2cccc(S(=O)(=O)N3CCCCC3)c2)c([N+](=O)[O-])n1`: 9.92%; for `O=C(NCc1ccccn1)c1ccc(Cn2cc(C(F)(F)F)ccc2=O)cc1`: 20.4%.

With `CCCCCn1cnc2c(sc3nc4c(cc32)CSC(C)(C)C4)c1=O`, the “hERG current change (%, negative = inhibition) at 1uM” value was 3.04%. The figure for `O=C(N/N=C/c1ccc(COc2ccc(Br)cc2)o1)c1ccco1` is 8.04%; for `COc1ccccc1NC(=O)c1ccc2c(c1)C(=O)N(c1ccccc1OC)C2=O` it is 14.4%; for `COc1ccc(CNC(=O)CCCC(=O)Nc2cccc(Br)c2)cc1` it is 8.73%. For the compound `CCCCc1cc(=O)oc2cc(OCC(=O)N3C[C@H]4C[C@@H](C3)c3cccc(=O)n3C4)ccc12`, the “hERG current change (%, negative = inhibition) at 1uM” value is given as 7.26%. Consider `Cc1cc2c(cc1S(=O)(=O)N(C)C1CCCCC1)OCC(=O)N2`, for which the “hERG current change (%, negative = inhibition) at 1uM” value stood at 5.42%. Consider `CSCc1nnc(NC(=O)c2ccc(S(=O)(=O)N(C)C)cc2)o1`, for which the “hERG current change (%, negative = inhibition) at 1uM” value is 13.8%. The same measure for `N#CCN1CCN(c2ccc(C(F)(F)F)cc2)CC1`: 3.72%. The figure for `CCN(CC(=O)Nc1ccccc1C(F)(F)F)C(=O)c1ccc(N2CCCC2=O)cc1` is 9.77%; for `C=CCOc1ccc(CNn2cn[nH]c2=S)cc1OCC` it is 3.12%; for `O=Cc1cn(CC(=O)NCC2CCCO2)c2ccccc12` (stereo not shown) it is 10.2%. The same measure for `CCOC(=O)CNC(=O)Cc1ccc(Cl)cc1`: 10.4%; for `COc1cc(CN2CCC(C)CC2)ccc1OCc1ccccc1.O=C(O)C(=O)O`: -3.21%; for `CC(C)(C)c1ccc(OCC(=O)O)cc1`: 12.3%. With `COc1ccccc1N1CCN(C(=O)c2cc3c(s2)CCCCC3)CC1`, the “hERG current change (%, negative = inhibition) at 1uM” value came to 3.71%.

As for `CCOC(=O)C/C(=N\Nc1ncnc2ccccc12)c1ccccc1`, the “hERG current change (%, negative = inhibition) at 1uM” value stood at 15.7%. The same measure for `CCCOC(=O)C1=C(C)NC(=O)NC1c1cc2c(cc1Br)OCO2` (stereo not shown): 8.29%. Consider `O=C(Nc1cnc2ccccn2c1=O)c1ccc(Cl)cc1`, for which the “hERG current change (%, negative = inhibition) at 1uM” value is given as -9.09%.

Consider `COc1ccccc1/C=C/C=N/NC(=O)c1ccco1`, for which the “hERG current change (%, negative = inhibition) at 1uM” value was 12%.

Consider `Cc1c(NC(=O)c2ncn[nH]2)cccc1-c1nc2ccccc2s1`, for which the “hERG current change (%, negative = inhibition) at 1uM” value was determined as 14.8%.

Take `CCOC(=O)c1ccc(N=C2SC(C(=O)NCCc3ccccc3)CC(=O)N2C)cc1` (stereo not shown): the “hERG current change (%, negative = inhibition) at 1uM” value was 20.6%. The same measure for `COc1cc2cc(CN(CCCO)S(=O)(=O)c3ccccc3Cl)c(=O)[nH]c2cc1OC`: 2.97%.

For `CCOCCn1c(CN2CCN(CCO)CC2)nc2c1c(=O)n(C)c(=O)n2C`, the “hERG current change (%, negative = inhibition) at 1uM” value was determined as 14.3%. Turning to `COC(=O)c1ccc(CSc2nnc(SCc3ccc(C(=O)OC)o3)s2)o1`, the “hERG current change (%, negative = inhibition) at 1uM” value is recorded as 3.46%. The same measure for `Cc1cc2cc(C#N)c(SCC(=O)Nc3nonc3C)nc2cc1C`: 6.61%; for `COc1ccc(C(=O)NC(=O)Nc2ncccc2C)cc1`: 8.92%; for `CS(=O)(=O)Cc1cc(N2CCCC2)nc(-c2ccccc2)n1`: 8.23%. The same measure for `O=C1OC(N2CCN(C/C=C/c3ccccc3)CC2)c2ccccc21` (stereo not shown): 13.2%.

As for `O=C(Nc1ccccc1OC(F)F)c1ccc(-n2cncn2)c([N+](=O)[O-])c1`, the “hERG current change (%, negative = inhibition) at 1uM” value came to 13%. For the compound `COc1cccc(OCCOc2ccc(/C=C3/SC(=S)NC3=O)cc2)c1`, the “hERG current change (%, negative = inhibition) at 1uM” value is on record as 18%. The figure for `NCCOc1cnn(-c2ccccc2Cl)c(=O)c1Cl` is 9.96%; for `CCc1[nH]nc(C(=O)N2CCCC(CNS(=O)(=O)c3cccs3)C2)c1C` (stereo not shown) it is 12.6%; for `CN(CC(=O)Nc1ccc(F)c(F)c1F)C(=O)c1ccc(-n2cncn2)c([N+](=O)[O-])c1` it is 8.89%. The figure for `O=C1c2ccccc2NC(c2ccncc2)N1c1ccccn1` (stereo not shown) is -2.04%; for `COC(=O)C1CCN(S(=O)(=O)c2ccc(OC)cc2)CC1` it is 5.02%. The same measure for `Oc1ccccc1/C=N/Nc1cc(N2CCCC2)nc(N2CCCC2)n1`: 7.88%; for `O=c1[nH]c(C2CCN(S(=O)(=O)c3ccc(C(F)(F)F)cc3)CC2)nc2c1nnn2Cc1ccccc1`: 16.6%; for `Cc1ccccc1CN1CCN(C(=O)c2ccc(S(=O)(=O)NCc3ccco3)cc2)CC1`: 0.221%.

Source of the values: PMC4336329 (PLoS ONE, 2015).
